# Data: the supplement of paper PMC3334620
# Whole data set: some 33,000 sequences, median “E-score (-0.5 to 0.5)” near -0.054, cut for the highest 2% near 0.39. Some of the results follow.
# Molecular target: Ylr278c (UniProt Q05854)
# Experiment: PBM E-score (8-mer binding enrichment) (E-score (-0.5 to 0.5)); higher = stronger / more preferred TF binding; most listed sequences are background and not binding sites
# Settings: protein concentration: 200 nM; construct: GST-DNA-binding domain
# How it was run: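 Yeast transcription factors, full-length or as DNA-binding domains, were expressed with a GST tag using PURExpress in vitro transcription/translation. At about 100-200 nM they were applied to universal all-10-mer Agilent arrays, double-stranded by primer extension on fresh or once-stripped slides. Fluorescent anti-GST detected bound protein, and masliner normalised the scans. E-scores for ungapped eight-base words, pooled with reverse complements, came from the Universal PBM Analysis Suite.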
row,Sequence,PBM E-score
1,GCTGATAA,0.0457
2,CGGAAAAC,0.373
3,CATAGATC,-0.219
4,TGGTGTAA,-0.151
5,CACTCCCA,-0.106
6,AAACTACG,0.128
7,AACTAAAA,0.0312
8,AACGTATA,-0.291
9,CGCATGAG,-0.229
10,ATTACAAT,-0.00014
11,ATTCGTCG,0.11
12,CCTGAGCG,-0.105
13,TACGTCAA,-0.246
14,ACCATTAA,0.00806
15,ATTCCTTA,-0.136
16,AACCCAGA,-0.173
17,AACTAATG,-0.0302
18,AACGGTGT,-0.018
19,GCAGTGAA,-0.0995
20,CAGTACTC,-0.106
21,CACACATA,-0.14
22,CTGTGCAA,-0.289
23,CCGTGACC,0.159
24,AGGCTCTC,-0.21
25,CCCTAGTC,-0.368

row,Sequence,PBM E-score
1,CCACCGTA,-0.109
2,GAAGGCTC,-0.0768
3,CTGACGCA,-0.165
4,CACATGAA,-0.2
5,ATAAGAAC,-0.0268
6,TCTTCGAA,-0.132
7,CTAAGAAC,0.0915
8,AACTTATA,0.0873
9,ATCAGCGG,0.29
10,CAGCACGG,0.0262
11,ACGAGTAG,-0.0549
12,AATTTGCC,0.132
13,CTTCGACC,-0.105
14,ATACCAAT,0.0722
15,CAATGCCG,0.365
16,GATTAGCC,0.00707
17,TATTCTCA,-0.171
18,AAATACGG,0.14
19,AACTTCGA,-0.11
20,CTCAGATA,-0.125
21,AGAACGTG,0.00792
22,AATAACAT,-0.0376
23,CTTATTGC,-0.0902
24,AAGTATGT,-0.258
25,CAGGCGCA,-0.0163

row,Sequence,PBM E-score
1,AGCAGTGC,-0.258
2,TTGCGCAA,0.0798
3,TAGGCGGA,0.303
4,CGGTGGGC,0.222
5,CAACCTTG,-0.0731
6,AATTTACT,-0.0328
7,TAGGGTCA,-0.244
8,ACATCGAC,-0.114
9,CCCGGACG,0.273
10,ATCACCAA,-0.161
11,AGACCGCC,0.0855
12,CGCATTTA,0.145
13,CCCAGAGG,-0.151
14,ATCCCACC,0.224
15,AGGCGCAA,0.0538
16,TTCCGCAA,0.298
17,ATCCGAAG,0.301
18,ATATCCCG,0.341
19,CATAGTAC,-0.137
20,GAACCCTC,0.0374
21,GGTTCCGA,0.384
22,CTTGTAGA,-0.236
23,CGAACTAG,-0.0176
24,CAGTTTCA,-0.195
25,CGTCTATC,0.0841
